Measured values taken from the supplement of paper PMC12889115.
This is one part of the list. Rule as the data show it: active = 25% or less and inactive = the rest. Single values are uncertain, as repeats are few or missing.

system: Salmonella enterica serovar Typhimurium SL1344; experiment: intramacrophage bacterial GFP load (SAFIRE), percent of DMSO control (% of DMSO); higher = more intracellular bacteria (less inhibition); conditions: 25 µM; system: infected RAW 264.7 macrophages
Method: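 Secondary screen of the 553 primary hits at 25 µM. (i) S. Typhimurium SL1344 grown in Mueller-Hinton broth with 0.5 µg/mL polymyxin B, OD600 read after 18 h. (ii) SAFIRE assay: RAW 264.7 macrophages infected with S. Typhimurium sifB::gfp (MOI 30); compound added 2 h post-infection; cells fixed at 18 h; GFP-positive pixel fraction per macrophage imaged by confocal microscopy and expressed as % of DMSO control.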
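Also: compounds tested were the hits of an earlier 50 µM broth growth screen of a drug-like diversity library run with polymyxin B.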

Intramacrophage bacterial GFP load, inactive:
O=C(C#Cc1ccccc1)N1CCC(C2(c3cccnc3)NC(=O)N(CCc3cccs3)C2=O)CC1 (stereo not given) 147
CCOC(=O)C1(Cc2ccc(F)cc2)CCCN(C(=O)c2cc(C3CC3)n[nH]2)C1 (stereo not given) 64.1
O=C(NCc1n[nH]c2c1CCC2)c1coc(COc2ccc(F)cc2)n1 175
COCc1noc(-c2ccc(N3CCCC3c3nccs3)nc2)n1 (stereo not given) 208
O=C(CC1(c2ccccc2Cl)CC(=O)N(C2CCCC2)C1=O)N1CCCCCC1 (stereo not given) 60.7
Cc1nonc1CN(C)C(=O)C1CCCN(c2nc(-c3ccccc3)nc3c2CCC3)C1 (stereo not given) 113
CCCCN(C)C(=O)c1sc2ncnc(N3CCCCCCC3)c2c1C 58.2
COc1ccccc1CCC(=O)N1CCc2onc(-c3ccc(Cl)cc3)c2C1 150
CC(C)C(=O)N(C)C(Cc1ccccc1)C1CCN(C(=O)/C=C/c2cc(F)ccc2F)CC1 (stereo not given) 108
Cc1ccsc1C(=O)N(Cc1ccc(OCc2ccc3c(c2)OCO3)cc1)CC1CCCO1 (stereo not given) 76.8
CCOC(=O)C1(CCc2ccccc2)CCCN(C(=O)c2ccc(COC)s2)C1 (stereo not given) 33.7
COc1ccc(C(=O)N2CCCC(Nc3ccc(C(C)C)cc3)C2)cc1F (stereo not given) 79.5
O=C(NCC[C@@H]1C[C@@H]2C=C[C@H]1C2)c1cccc(OC2CCN(C(=O)C3CC3)CC2)c1 35.9
COc1cc(-c2nc(CN(CCO)Cc3cccs3)c(C)o2)ccc1F 34.3
CCC1CN(Cc2ccc(C(=O)OC)cc2)Cc2cc(OC)ccc2O1 (stereo not given) 42.8
CCS(=O)(=O)c1ncc(CN(C)C2CCCCC2)n1CCCc1ccccc1 26.2
O=C(c1cc(CCc2ccccc2)no1)N1CCCC(c2ccccc2)C1 (stereo not given) 168
C=CCN(CC=C)c1ccc(-c2nc(-c3cccc(OC)c3OC)no2)cn1 193
Cc1cnc(SCCN2CCOCC2)nc1C1CCCN(C(=O)CCC2CCCCC2)C1 (stereo not given) 29.9
Cc1ccc(CN(C)C(=O)CC2(c3cccc(C(F)(F)F)c3)CC(=O)N(C3CC3)C2=O)cc1 (stereo not given) 239
CCOC(=O)C1(Cc2ccccc2C)CCCN(Cc2ccc(COC)o2)C1 (stereo not given) 33.1
O=C(NCCc1ccccn1)c1ccc(OC2CCN(C(=O)C3CC3)CC2)cc1 91

Intramacrophage bacterial GFP load, active:
CC(C)CCN(C)Cc1cnc(S(=O)(=O)C(C)C)n1CCc1ccccc1 14.3
CCCCN(C)C(=O)c1nc2ccccn2c1CN(C)Cc1ccc(CC)cc1 12
CC(C)c1ccc(NC2CCCN(C(=O)c3ccc4c(c3)OCO4)C2)cc1 (stereo not given) 7.59
COc1cc([C@@H]2C[C@H]3CN(CCc4ccccc4)C(=O)[C@]34CCCN24)c(Cl)cc1O 22.6
O=C(Nc1cccc(-c2ccc(F)cc2)c1)C1CCCN(Cc2ccccn2)C1 (stereo not given) 10.1
CN(C)c1ccc(CN2CCOc3ccc(C(C)(O)COc4ccccc4)cc3C2)cc1 (stereo not given) 7.43
c1ccc(-c2ccc(-c3n[nH]cc3CN3CCN(c4ncccn4)CC3)cc2)cc1 17.2
C=CCO[C@H]1[C@H](NC(=O)CSC)c2ccccc2C12CCN(Cc1cc(CC(C)C)[nH]n1)CC2 7.6
